Experimental data published in the RNAGym collection of RNA variant scans (doi:10.7554/elife.90254).
The source gives no read counts; variants with many changes may rest on few reads.

B1: LINE1-mini (parent)
chain: GGCAGAGCUCAACACAGCGUGGCAAAGUGGCUGUGGCUAGACUGCC

Variants of: B1
Experiment: self-cleavage, relative activity (ratio to wild type); higher = more cleavage; in vitro, sequencing; the parent is a self-cleaving ribozyme
For GGCGGACCUCAACACAGCGUAGCAAAGUGGUUGCGGCUAGACGGAC [A4G G7C G21A C31U U34C U43G C45A], the self-cleavage was 0.03.
For GGCAGAGCUCAACAAAACGUGGCAAAGUGACUGUGGCUAGACUGCC [C15A G17A G30A], the self-cleavage was 0.02.
For GGCACAGCACAACACAACGUGGCAAAGUGGCUGUGGCUAGACUGCC [G5C U9A G17A], the self-cleavage was 0.03.
GGCAGAGGUCAACACAGCGUGGCAAACUGGCUGUUGCUAGACUUCC [C8G G27C G35U G44U] showed a self-cleavage of 0.02.
Variant GGCAGAGCACUACACAACGUGGGAAAGUGGCUGUGGCUAGACUGCC [U9A A11U G17A C23G] has a self-cleavage of 0.03.
GCCAUAGCUAAUCAAAGCGUGGCAAAGUGGCUGUGGCUAGACUGCC [G2C G5U C10A A12U C15A] gave a self-cleavage of 0.04.
With GGCAGAGUUCAACACAGAGCAGCAACGUGGCUGUGGUUAGACUGCC [C8U C18A U20C G21A A26C C37U] the self-cleavage was 0.02.
Variant GGCAGAGCUCAAUACAGCGUGGCAAAGUGGCUGUGGCUAAGCUGCC [C13U G40A A41G] has a self-cleavage of 0.08.
GGCAGCGCUCAACACAGCGUGGCACAGUGGCAGUGGCUAGCCUGCC [A6C A25C U32A A41C] showed a self-cleavage of 0.02.
In the case of GGAAAAGUUAAACGCAGCGUGGCAAAGUGGCUGUGGCUAGACUGCC [C3A G5A C8U C10A A14G], the self-cleavage is reported as 0.1.
For GGUAGAGCUCAACACAUCGUGGCAAAGUGGCUAUGGCUAGACUGCC [C3U G17U G33A], the self-cleavage was 0.11.
GGCAGAGCUCAACACAGCGUGGCAAAGGGGCUGUCGCUAGACUGUC [U28G G35C C45U] showed a self-cleavage of 0.02.
In the case of GGCUGAGCUCAACACAGCGUGGCAAAGUGGCUGUGGCUCGGCUGCC [A4U A39C A41G], the self-cleavage is reported as 0.04.
With GGCAGAGCUCAACACAGCGUGGCAAAGUGCCUGUGGCUUGACGGCC [G30C A39U U43G] the self-cleavage was 0.01.
Work on UGCAGAGCUCAACACAGCGUUGCAAAGUGGCUGUUGCUAGACUGCC [G1U G21U G35U] yielded a self-cleavage of 0.06.
With GGCAUAUCUCAACACACCGUGGAAAAGUGGCUGUGGCUAGACUGCC [G5U G7U G17C C23A] the self-cleavage was 0.03.
Work on GGCAGAUCCCAACACAGCGUGGCAAAGUGGCUGCGGCUAGACUGCC [G7U U9C U34C] yielded a self-cleavage of 0.01.
GGCAGAGCUAAACACAGCGUAGCAAAGUGGCUGUGUCUAGACUGCC [C10A G21A G36U] gave a self-cleavage of 0.01.
With GGCAGAGAUCAACCCAGCGUGGCAAAGUGGUUGUGGCUAGACUGCC [C8A A14C C31U] the self-cleavage was 0.05.
GGCAGAGCGCAACACAGCGUGGCAAAGUGGAUGUGGCUAGGCUGCC [U9G C31A A41G] showed a self-cleavage of 0.02.
Variant GUCACAGCUCAACACAGCGUGGUAAAGUGGCUGUGGCUAGACUGCC [G2U G5C C23U] has a self-cleavage of 0.02.
Work on GGCUGAGCUCAACCCCGCGUGGCAAAGUGGCUGUUCCUAGACUACC [A4U A14C A16C G35U G36C G44A] yielded a self-cleavage of 0.04.
In the case of GGCAGAGCUCAACACAGAGUGGCAAAGUGGCCUUGGCUAGAAUGCC [C18A U32C G33U C42A], the self-cleavage is reported as 0.09.
For GGCUGAGCUCAAGACAGCGUGGCAAAGUGGCUGUGGCUAGACUUUC [A4U C13G G44U C45U], the self-cleavage was 0.04.
Work on GGCAGAGCUCAAAACUGCGUCGCAAAGUGGCUGUGGCUAGACUGCC [C13A A16U G21C] yielded a self-cleavage of 0.06.
GGCAGAGCUGACCACAGCGUUGCAAAGUGGCUGUGGCUAGACCGCC [C10G A12C G21U U43C] gave a self-cleavage of 0.
With GCCAUAGCUCAACACAGCGUGGCAAAGUGGCUGCGGCUAGACUGCG [G2C G5U U34C C46G] the self-cleavage was 0.03.
With GGAAGAGCUCAACAAAGCGUGGCAACGUGGCUGUGGCUAGACUGCC [C3A C15A A26C] the self-cleavage was 0.1.
Work on GGCAGAGCUCAACACAGCGUGCCAAAGUGGCUCUGGCUAAACUGCC [G22C G33C G40A] yielded a self-cleavage of 0.01.
GGUAUAGUCCAACACAGCUUGGCAAAGUGGCUGUGGCUAGACUGCC [C3U G5U C8U U9C G19U] showed a self-cleavage of 0.11.
In the case of GGCAUAGCUCAACACUGCGUGGCUAAGUGGCUGUGGCUAGACUGCC [G5U A16U A24U], the self-cleavage is reported as 0.06.
Variant GCGAUAGCUCAACACAGCGUGGCAAAGUGGCUGUGGCUAGACUGCC [G2C C3G G5U] has a self-cleavage of 0.13.
Variant GGCAGAGCUCAACACAUCGUGACAAAGUUGCUGUGGCUAGACUGCC [G17U G22A G29U] has a self-cleavage of 0.61.
For GGCAGAGCUCAAAACAGCGAGGUAAAGUGGCUGUGGCUAGACUGCC [C13A U20A C23U], the self-cleavage was 0.05.
With GGCAGAACACAACACAGCGUGGCAAACUGGCUGUGGCUAGACUGCC [G7A U9A G27C] the self-cleavage was 0.17.
Variant GGCAGCUCUCAACAGAGCGUGGCAAAGUGGCUGUGGAUAGACUGUC [A6C G7U C15G C37A C45U] has a self-cleavage of 0.02.
GGCAGAGCUCAAUACAGAGUGGCAAAGUGGCUGUGGCUAUACUGCC [C13U C18A G40U] showed a self-cleavage of 0.04.
GGCAGAGCUCAACACAGUGUGUCAAAGUGGCUGUGGCUAAACUGCC [C18U G22U G40A] gave a self-cleavage of 0.35.
Work on GGCAUACCUCAAGACUGCGUGGCAAAGUGGCUGUGGCUUGACUGCC [G5U G7C C13G A16U A39U] yielded a self-cleavage of 0.05.
With GGCAGAGCUCAACACAAUGUGGAAAAGUGGCUGUGGCUAGUCUGCC [G17A C18U C23A A41U] the self-cleavage was 0.02.
Work on GGCUGAGCUCAACACAGCGUGGCAAAGUGCCGGUGGCUAGACUGCC [A4U G30C U32G] yielded a self-cleavage of 0.04.
Variant GCCAGAGUUCAACACAGGGUGGCAAAGUGGCUGUGGCUAUACUGCC [G2C C8U C18G G40U] has a self-cleavage of 0.04.
GGCAUAGCUAAACACAGCGUGGCCAGGUGGCUGUGGCUAGACUGCC [G5U C10A A24C A26G] showed a self-cleavage of 0.
For GGCAGAACGCAACACAGCGUGGCAAAGUGGCUUUGGCUAGACUGCC [G7A U9G G33U], the self-cleavage was 0.04.
GGCAGAGCUCAACACAGCGUGGCUAAGUGGCUGUGUCGAGACUGCC [A24U G36U U38G] showed a self-cleavage of 0.02.
For GGCAGGGCUCAACAAAGCGGGGCAAAGAGGCUGUCACUAGACUGCC [A6G C15A U20G U28A G35C G36A], the self-cleavage was 0.01.
For GGCAGAGCUCAACAAUGCGUGGCAAAGUGGCAGUGGCUAGACUCCC [C15A A16U U32A G44C], the self-cleavage was 0.03.
With GGCAGAGCCCACCACAGCGGGGCAGAGUGGCUGUGGCUAGACUGCC [U9C A12C U20G A25G] the self-cleavage was 0.02.
With GGCAGAGGUAAACACAGCGUGGCAAAGUGGCUGUGGCUAAACUGCC [C8G C10A G40A] the self-cleavage was 0.01.
For GUCAGAGCUGAACACAGCGUGGCAAAGUGGCUGUGGGUAGACUGCC [G2U C10G C37G], the self-cleavage was 0.03.
GGCAGAGCUCAACACAGCGUGGCAAAGUGGGUGUGGUUAGACAUCC [C31G C37U U43A G44U] showed a self-cleavage of 0.09.
In the case of GGCAGAGCUCAACACAGCGUGGCAUAAAGGCUGUGGCUAGACUGCC [A25U G27A U28A], the self-cleavage is reported as 0.41.
Variant GGCAGAGUUCAUCUCAGCGUGGCAAAGGGGCUGUGGCUAUACUGCC [C8U A12U A14U U28G G40U] has a self-cleavage of 0.02.
Variant GGCAGAGCUCAUCACAUCGUGGGAAAGUGGCUGUGGCUAGACUUCC [A12U G17U C23G G44U] has a self-cleavage of 0.02.
Variant GGCAGAGCUCAACGCAACGUGGCAAAGUGGUUGUGGCUAGACUGCC [A14G G17A C31U] has a self-cleavage of 0.13.
GGCAGAGCUCAACACAGCGUGGCAAAGUGGUUGUUGCUAGACUCCC [C31U G35U G44C] showed a self-cleavage of 0.03.
